Test results from paper PMC4980431, “Ctf4 Is a Hub in the Eukaryotic Replisome that Links Multiple CIP-Box Proteins to the CMG Helicase” (Molecular Cell, 2016).
Numbering of substitutions follows the chain as printed. Results are given in words; binding and its absence hold for the method and conditions named. Some binding calls cover weakened binding; strength is not graded here.

T1: Ctf4 461–927 (budding yeast) (UniProt Q01454)
T1 sequence: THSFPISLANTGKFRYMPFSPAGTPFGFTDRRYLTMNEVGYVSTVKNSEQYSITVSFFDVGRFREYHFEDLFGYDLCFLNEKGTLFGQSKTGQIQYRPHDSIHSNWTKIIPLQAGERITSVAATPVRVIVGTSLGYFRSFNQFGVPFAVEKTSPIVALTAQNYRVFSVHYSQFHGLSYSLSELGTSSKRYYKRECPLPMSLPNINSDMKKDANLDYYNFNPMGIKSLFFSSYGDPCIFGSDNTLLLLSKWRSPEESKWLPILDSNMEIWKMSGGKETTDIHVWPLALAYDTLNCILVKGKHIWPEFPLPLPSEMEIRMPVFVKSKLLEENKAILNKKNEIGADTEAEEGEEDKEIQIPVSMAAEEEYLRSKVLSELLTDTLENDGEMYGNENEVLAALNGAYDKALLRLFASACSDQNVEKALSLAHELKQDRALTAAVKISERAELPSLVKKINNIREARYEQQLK

T2: wild-type Ctf4 (two-hybrid, limits not stated) (budding yeast) (UniProt Q01454)
T2 sequence: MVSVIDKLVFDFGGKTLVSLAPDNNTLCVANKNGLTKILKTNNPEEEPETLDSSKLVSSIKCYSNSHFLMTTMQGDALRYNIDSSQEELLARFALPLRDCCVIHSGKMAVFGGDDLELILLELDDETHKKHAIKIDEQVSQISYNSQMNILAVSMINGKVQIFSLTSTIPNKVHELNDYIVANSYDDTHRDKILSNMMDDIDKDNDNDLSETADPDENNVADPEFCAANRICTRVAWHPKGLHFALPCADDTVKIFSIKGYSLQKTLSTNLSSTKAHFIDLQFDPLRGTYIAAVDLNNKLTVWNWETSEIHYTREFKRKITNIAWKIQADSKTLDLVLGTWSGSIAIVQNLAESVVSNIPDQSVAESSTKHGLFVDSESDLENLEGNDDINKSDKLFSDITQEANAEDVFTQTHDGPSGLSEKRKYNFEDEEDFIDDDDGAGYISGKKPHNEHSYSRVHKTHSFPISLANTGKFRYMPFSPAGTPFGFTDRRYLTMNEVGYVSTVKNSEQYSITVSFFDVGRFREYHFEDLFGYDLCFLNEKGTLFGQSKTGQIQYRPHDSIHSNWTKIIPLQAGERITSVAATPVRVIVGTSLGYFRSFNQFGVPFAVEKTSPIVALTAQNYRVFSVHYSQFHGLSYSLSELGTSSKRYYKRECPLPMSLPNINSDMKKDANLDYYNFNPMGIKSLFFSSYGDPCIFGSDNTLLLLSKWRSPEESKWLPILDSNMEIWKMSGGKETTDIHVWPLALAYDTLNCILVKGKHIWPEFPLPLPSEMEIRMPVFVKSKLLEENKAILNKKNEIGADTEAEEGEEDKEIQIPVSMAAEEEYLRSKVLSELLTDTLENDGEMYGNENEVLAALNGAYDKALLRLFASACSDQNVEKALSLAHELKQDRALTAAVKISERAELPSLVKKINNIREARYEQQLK

T3: Ctf4-4E (two-hybrid) (budding yeast) (UniProt Q01454)
T3 sequence: T2 sequence with L867E, A871E, A897E, I901E

T4: Ctf4-3E (two-hybrid) (budding yeast) (UniProt Q01454)
T4 sequence: T2 sequence with M731E, I740E, L756E

B1: Ctf4-4E (two-hybrid) (protein, UniProt Q01454 1-927)
chain: T2 sequence with L867E, A871E, A897E, I901E
B2: Dna2 120–456 (two-hybrid) (domain or fragment, UniProt P38859 120-456)
chain: DGPMEEVIWKYSPLQRDMSDKTTSAAEYSDDYEDVQNPSSTPIVPNRLKTVLSFTNIQVPNADVNQLIQENGNEQVRPKPAEISTRESLRNIDDILDDIEGDLTIKPTITKFSDLPSSPIKAPNVEKKAEVNAEEVDKMDSTGDSNDGDDSLIDILTQKYVEKRKSESQITIQGNTNQKSGAQESCGKNDNTKSRGEIEDHENVDNQAKTGNAFYENEEDSNCQRIKKNEKIEYNSSDEFSDDSLIELLNETQTQVEPNTIEQDLDKVEKMVSDDLRIATDSTLSAYALRAKSGAPRDGVVRLVIVSLRSVELPKIGTQKILECIDGKGEQSSVVVR
B3: full-length Tof2 (two-hybrid) (protein, UniProt Q02208 1-771)
chain: MIKMWRLQIVLVPPSAQDIITFLEARLNTPQSVSPMVQYNEDIITHNNSINNCSDPSPTSPSSQNSIQSNRSSDFINYLPNCKKFLHFTDGDNTLLQLSNEILTKFDRLYPNFKESIEIVSLQDRHGCDLDSEFIIKDVFENDGVVLVILKDELDWSRNQHISLLQLARQRRRQDNKPSTKSIVTEKRKKISKEDLSSISNKDTMHLIAKSSLKNNFINKSRVSTPLMNEILPLASKYDALNKEKCPMPLTSTVVASNVHKDVKDHARAKEGVVTQGSDNNKENIPSSTQQQKNDGAKRAESKDLDLLRNSSEDADYEPADENSPQISFDSIDTDFQLSTTSHTNSDMHIQYSNPSSGAHSPRKSSLEIKVQNKKGDDLPLNDKDIGENCRRIEAFSDEEDFNETDNDRADSFINNSKKASMGFRDINSDLDSVSFNSDIENAVQSTQSTKNVVSPPFFPEKELNNRLHQSQGKEALFRLVEKEFPDKSLGAASSTSHAKDVKIQETIRKLNRFKPTGETKVQKRNSITEPYYGKFGIMKKDKPKSITSKGVSLETKHFDDPNTIISGEKFAKFGKIKVKRKTDDVGSKVIEFKRKRNMGNRSLKDIFANAGKPPNAASTIKVVKLMRDPVDNSKDKVEATSNSTAQEQEQVSPKLPVMNSTPGKRKNGQAIPSSLERTPQLKKVKVTRSHSSPSSSSSMSLESSLDSSSSDDSDDDSDSRNVQVKKINFKTSHGPAGNSNGKPMLDVDDNEINTKKYQTPKYVESDEDDQ

Tests used:
[1] = target: T1, Ctf4 461–927 (budding yeast); assay: two-hybrid; directed yeast two-hybrid assay, fusions to the activation and DNA-binding domains of Gal4
[2] = target: T2, wild-type Ctf4 (two-hybrid, limits not stated) (budding yeast); assay: as above
[3] = target: T1, Ctf4 461–927 (budding yeast); assay: as above; remark: listed apart in the source
[4] = target: T1, Ctf4 461–927 (budding yeast); assay: two-hybrid; yeast two-hybrid screen against amino acids 461–927 of Ctf4, performed by Hybrigenics
[5] = target: T3, Ctf4-4E (two-hybrid) (budding yeast); assay: two-hybrid; directed yeast two-hybrid assay, fusions to the activation and DNA-binding domains of Gal4
[6] = target: T4, Ctf4-3E (two-hybrid) (budding yeast); assay: as above

Molecule | binding [2] | binding [3] | other results
full-length Dna2 (1–1,522) (two-hybrid) (from UniProt P38859 1-1522) |  |  | binding [1]: binds
B1 | binds |  | 
B2 |  | binds | binding [4]: binds
B3 | binds | binds | binding [5]: binds; binding [6]: no binding
